± gives the standard deviation of the averaged measurements. The list shows a part of the results.
What follows are sequences tested on PfAP2-EXP AP2 domain (GST-tagged) (assay: gcPBM binding intensity (ln(normalized median fluorescence intensity)); higher = stronger DNA binding).
Outline: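 An Agilent 4 × 180k array of primer-extended double-stranded 36-bp intergenic genomic probes, with negative controls, was incubated for 1 h with GST-tagged P. falciparum DNA-binding domains expressed in E. coli. Alexa488 anti-GST antibody detected bound protein, scanned at 488 nm. Binding intensity is the highest Masliner-normalised natural-log median intensity across replicate spots of either probe orientation.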

| Sequence | gcPBM binding intensity (ln) |
| --- | --- |
| AAAAAAAAAAAAAAAAGTACGTATTTTTTTTAAAAT [XGTACX_site2654] | 8.79 ± 0.22 |
| TTCGTCTTTTTTCTCACACACCCTTTTTATTAAAAG [CACACA_site7225] | 9.01 ± 0.59 |
| AATAATATACCTCTTGTGCACATATTAAAAGTTCAT [GTGCAC_site9536] | 8.97 ± 0.22 |
| ATAATACAAAACACAAGTACATAAATTAAAAAGATG [XGTACX_site7839] | 9.01 ± 0.4 |
| AGAATTAAAATAAAGGTGCATTTTTTTGTTTCATGT | 8.82 ± 0.4 |
| AAAGAATACATATATTGTACATATATATATACCGTT [XGTACX_site6250] | 8.74 ± 0.69 |
| AGTTATTTTATAGAATATGAATAATTTTACTTTTCA [XGTACX_negctrl_site403] | 7.97 ± 0.39 |
| TTCATTCATTTTATTACACACAAAAAAAAAAAAAAA [CACACA_site3680] | 8.05 ± 0.51 |
| AATTTCATTTTACTTATCTAATATTTATAATCTTTT [CACACA_negctrl_site636] | 8.46 ± 0.42 |
| AAAAAAAAAGGTACTACACACTATTCTCAATAGAAA [CACACA_site6193] | 8.4 ± 0.48 |
| TTAGGATATTTATTTCGTACATATATTTTTAATTGT [XGTACX_site582] | 8.14 ± 0.41 |
| AATTTTTATATAATTTAACACACATTTCATATAAAA [CACACA_site9018] | 8.35 ± 0.36 |
| TACTTCATATAATTAGCACACAATAATTTCTCATTT [CACACA_site2872] | 8.54 ± 0.43 |
| TATAAATTATTTATCACACATAAAACAAAAATAAGA [CACACA_site5493] | 8.84 ± 0.28 |
| ATATATATTAAAAATAGTACATATAATAAAAATCAT [XGTACX_site4265] | 8.65 ± 0.38 |
| ATATGAAATATATGTAGTACACATAATTAAAAGTAG [XGTACX_site6490] | 8.88 ± 0.28 |
| TGTATATGTTTAATTAGTACATATAAAGTAACAATA [XGTACX_site1207] | 8.54 ± 0.33 |
| TACATATTCCTACAAATGTATAAATTATAAATATTA [XGTACX_negctrl_site30] | 8.02 ± 0.3 |
| AACGATATAGGTACTACACACATTATGTCATCCTAT [CACACA_site7205] | 8.73 ± 0.35 |

| Sequence | gcPBM binding intensity (ln) |
| --- | --- |
| TTTGTGGTTACATGTGCACACACTTATTTCGTTCTT [CACACA_site1435] | 9.03 ± 0.23 |
| GATATGTTTTCCTAGGTTCATGATGATAGGTAGTTT [XGTACX_negctrl_site217] | 8.85 ± 0.29 |
| AATATATAAATTGACACACACATATATACATATATA [CACACA_site1213] | 8.46 ± 0.39 |
| TGTTAATATATCATTATGTTATAGGTTCAGCTGGGA [CACACA_negctrl_site401] | 8.44 ± 0.46 |
| ATATGCTACATTATATGTACACACATATACATATAT [XGTACX_site1656] | 8.61 ± 0.38 |
| TAATATAAAGAAATATCAATAATTTGGGCAAATGCC [GTGCAC_negctrl_site621] | 8.22 ± 0.18 |
| AGGTAGAAAAAAGACACACACATTATATATATATAT [CACACA_site4367] | 9.98 ± 0.27 |
| AAGGTGGTTATTAAATGTACACAGACATATACAAAA [XGTACX_site3007] | 8.54 ± 0.36 |
| TTTTATGCATGTGAAGTGCAAAATAAAAAATAAAAT [GTGCAC_site9612] | 9.21 ± 0.028 |
| TATATTTGTTAATTTTGTACGTATGGATATACATAA [XGTACX_site5100] | 8.12 ± 0.35 |
| TATAAATATAGAATTACACACAATGTTCTATAAATA [CACACA_site7508] | 8.19 ± 0.35 |
| AATAAATAAATAAATAAAACAAAGGGATTACATACA [TGCATGCA_negctrl_site513] | 8.91 ± 0.26 |
| CACAACATATATATATATATATATATATATATGTGT [CACACA_negctrl_site28] | 9.235 ± 0.049 |
| ATATTTTGTTATGTAGATGTTGGTAGGAATTTTGGT [CACACA_negctrl_site1104] | 8.46 ± 0.47 |
| TTAAAAAAATATTGAAGTACACACATTATAAACTTT [XGTACX_site3548] | 8.49 ± 0.25 |
| TACTTTTTAGGAAAGTGTACAAGCATATAAGGAATA [XGTACX_site2834] | 8.93 ± 0.47 |
| TTTCATATATATGAAACACACAAAGGAAAAAAAATT [CACACA_site4144] | 8.87 ± 0.46 |
| ATATAATAAAATTAATGTACATATATGTATTATATA [XGTACX_site3283] | 8.4 ± 0.22 |
| GCTCATATGACAACAACACACAAAAAAATAAAATGA [CACACA_site714] | 8.62 ± 0.6 |

| Sequence | gcPBM binding intensity (ln) |
| --- | --- |
| AAAAAAAAAAAACACACACACATAGACCTCCAATAG [CACACA_site3562] | 8.68 ± 0.7 |
| ACAAGTTTATTTGTTGCACACATATAAGTAGAGAAA [CACACA_site8994] | 8.59 ± 0.22 |
| AACATAATCTCATATACACACAAAAATATTGAAATA [CACACA_site7085] | 8.61 ± 0.43 |
| TACTTATATACACATGTATATTATATATATAATATA [XGTACX_negctrl_site335] | 8.67 ± 0.4 |
| CACACGCACGGACACACACACATATAAAATCTATAT [CACACA_site6428] | 8.8 ± 0.26 |
| TGTTATTAAAATATAGTGCATAATTAACCATTATAA [GTGCAC_site9594] | 8.26 ± 0.22 |
| TAATAATATATTTGTAGTACACAATTTTTTATAACT [XGTACX_site3951] | 8.31 ± 0.3 |
| TACTATAACAGACATACACACAAAAAAAAAAAAAAA [CACACA_site538] | 8.18 ± 0.46 |
| ATATTTAACAGGTTAAAAATATAAACAAATAAATAA [CACACA_negctrl_site907] | 8.52 ± 0.43 |
| ATTTTTTTTTTTTTTTTTTTTTTTTTTTAATCTGGA [CACACA_negctrl_site1347] | 7.88 ± 0.46 |
| GAGAGGATAGTTCACAGTACTCAGTAACTCTACGGA [XGTACX_site4875] | 8.63 ± 0.61 |
| AAAAAAAAATAATATACACACTCCAATATAAAAAAT [CACACA_site3958] | 8.65 ± 0.43 |
| CGCACTAAAAAACACACACACACACCCATATATATA [CACACA_site4152] | 8.65 ± 0.3 |
| TGTGTATTATAAACATGTACATAAAAATACGATATT [XGTACX_site3643] | 8.89 ± 0.35 |
| TTTTTCCCCCTTTTTTTGATTTTTATCTTAATTCTA [TGCATGCA_negctrl_site287] | 8.34 ± 0.37 |
| ATATAATAACAAAAGGTGCGCATTAAGACAAAAAAA | 9.22 ± 0.2 |
| TATTATATTGTTCATTTACACTTTCATTTTAAAAAA [CACACA_negctrl_site260] | 8.69 ± 0.47 |
| TTTTTTCATTTTTTATTTTTTTATTTTTTACATATT [GTGCAC_negctrl_site137] | 8.53 ± 0.45 |

Source: the supplement of paper PMC11417369
